{
  "source": "paper PMC4336329",
  "about": "(PLoS ONE, 2015)",
  "note": "Among all 310,000 compounds or so, about 2,200 (0.71%) showed an effect of 50% or more. Effects have a minus sign here. The list shows a part of the results.",
  "data": [
    {"target": "human ether-à-go-go-related gene (hERG) potassium channel (human, UniProt Q12809)", "sequence (Q12809 whole entry, looked up)": "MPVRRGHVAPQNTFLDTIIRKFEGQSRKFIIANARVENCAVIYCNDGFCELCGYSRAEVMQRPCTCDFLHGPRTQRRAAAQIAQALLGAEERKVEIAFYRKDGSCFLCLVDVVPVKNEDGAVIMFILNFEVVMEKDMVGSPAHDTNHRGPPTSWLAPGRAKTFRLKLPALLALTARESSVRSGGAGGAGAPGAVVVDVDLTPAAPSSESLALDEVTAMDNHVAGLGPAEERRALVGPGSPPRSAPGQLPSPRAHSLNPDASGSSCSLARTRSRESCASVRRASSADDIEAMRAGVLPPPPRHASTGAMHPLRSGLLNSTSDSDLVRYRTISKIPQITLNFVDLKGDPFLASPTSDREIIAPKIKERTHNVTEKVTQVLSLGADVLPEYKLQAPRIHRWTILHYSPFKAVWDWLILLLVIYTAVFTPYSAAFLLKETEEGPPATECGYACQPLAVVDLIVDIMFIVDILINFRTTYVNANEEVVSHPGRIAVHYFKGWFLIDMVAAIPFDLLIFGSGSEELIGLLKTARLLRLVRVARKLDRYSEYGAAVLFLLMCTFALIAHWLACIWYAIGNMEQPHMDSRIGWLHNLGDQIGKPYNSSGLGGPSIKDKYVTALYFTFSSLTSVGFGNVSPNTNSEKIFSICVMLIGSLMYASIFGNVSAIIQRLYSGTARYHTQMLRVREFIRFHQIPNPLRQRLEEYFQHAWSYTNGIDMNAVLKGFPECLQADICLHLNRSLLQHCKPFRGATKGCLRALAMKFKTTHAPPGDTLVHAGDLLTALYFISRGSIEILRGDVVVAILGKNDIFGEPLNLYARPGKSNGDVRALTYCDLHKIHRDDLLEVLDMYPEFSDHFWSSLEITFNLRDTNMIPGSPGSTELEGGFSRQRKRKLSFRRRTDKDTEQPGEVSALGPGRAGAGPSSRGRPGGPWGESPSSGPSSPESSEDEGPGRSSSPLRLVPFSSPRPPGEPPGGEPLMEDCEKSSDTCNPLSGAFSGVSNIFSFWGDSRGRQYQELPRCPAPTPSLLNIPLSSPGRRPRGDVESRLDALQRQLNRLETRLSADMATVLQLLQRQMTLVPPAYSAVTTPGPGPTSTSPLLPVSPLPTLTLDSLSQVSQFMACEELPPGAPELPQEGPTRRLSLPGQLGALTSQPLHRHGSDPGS", "assay": "primary screen, population patch clamp on CHO cells stably expressing hERG", "units": {"hERG current change (%, negative = inhibition) at 1uM": "%"}, "values": [
      {"smiles": "CCc1noc(C)c1C(=O)NNC(=O)c1ccc(Br)cc1", "hERG current change (%, negative = inhibition) at 1uM": 9.4},
      {"smiles": "CN(CC1CCCN(CCc2ccc(Cl)cc2)C1)C(=O)c1ccoc1", "note": "(stereo not drawn)", "hERG current change (%, negative = inhibition) at 1uM": -85.3},
      {"smiles": "COC(=O)c1ccc(NC(=O)c2ccc(C)cc2)o1", "hERG current change (%, negative = inhibition) at 1uM": 7.08},
      {"smiles": "COc1ccccc1N1CCN(CC(O)COCc2cccs2)CC1.Cl", "note": "(stereo not drawn)", "hERG current change (%, negative = inhibition) at 1uM": 0.795},
      {"smiles": "COc1cc2oc(=O)cc(C)c2c(OC)c1OC", "hERG current change (%, negative = inhibition) at 1uM": 9.24},
      {"smiles": "COc1ccc(N2CCN(CCNC(=O)c3c(C)cc(=O)oc3C)CC2)cc1", "hERG current change (%, negative = inhibition) at 1uM": -3.07},
      {"smiles": "CCOC(=O)C(NC(C)=O)C(O)c1ccc([N+](=O)[O-])cc1", "note": "(stereo not drawn)", "hERG current change (%, negative = inhibition) at 1uM": 7.93},
      {"smiles": "Cc1cc2c3c(c1)C1(C(=O)N3C(C)(C)CC2C)C(C#N)=C(N)OC2=C1C(=O)CC(C)(C)C2", "note": "(stereo not drawn)", "hERG current change (%, negative = inhibition) at 1uM": 3.67},
      {"smiles": "O=C(CCS(=O)(=O)c1ccccc1)Nc1ccc(N2CCN(Cc3ccccc3)CC2)cc1", "hERG current change (%, negative = inhibition) at 1uM": -0.518},
      {"smiles": "O=C(CN1CCCCC1)NC(=O)NCc1ccccc1", "hERG current change (%, negative = inhibition) at 1uM": 6.69},
      {"smiles": "O=C(N/N=C/c1ccc(O)c(O)c1O)/C(=C/c1ccc([N+](=O)[O-])cc1)NC(=O)c1ccccc1", "hERG current change (%, negative = inhibition) at 1uM": 15.9},
      {"smiles": "O=C(OC(C(=O)NC1CCCC1)c1cccnc1)C1=Cc2ccccc2OC1", "note": "(stereo not drawn)", "hERG current change (%, negative = inhibition) at 1uM": 3.21},
      {"smiles": "COCCCNC(=O)CCCn1c(=O)c2ccccc2n(CC(=O)Nc2c(C)cc(C)cc2C)c1=O", "hERG current change (%, negative = inhibition) at 1uM": 7.07},
      {"smiles": "CCOc1ccc(NC(=O)c2ccc3c(c2)OCCO3)cc1S(=O)(=O)N(CC)CC", "hERG current change (%, negative = inhibition) at 1uM": -5.32},
      {"smiles": "COc1ccccc1N(CC(=O)Nc1ccccc1C(=O)NC(C)C)S(C)(=O)=O", "hERG current change (%, negative = inhibition) at 1uM": 11.9},
      {"smiles": "Cc1nc(-c2ccccc2)c(Cc2ccccc2O)c(=O)[nH]1", "hERG current change (%, negative = inhibition) at 1uM": 13.3},
      {"smiles": "CCN(CC)c1ccc(/C=C(/C#N)c2nc3ccc(C)cc3[nH]2)c(OC(C)C)c1", "hERG current change (%, negative = inhibition) at 1uM": 8.09},
      {"smiles": "COc1cc(CO)ccc1Oc1nc2ccccc2n2cnnc12", "hERG current change (%, negative = inhibition) at 1uM": 9.51},
      {"smiles": "NC(=O)N=Nc1c(O)[nH]c2ccc([N+](=O)[O-])cc12", "hERG current change (%, negative = inhibition) at 1uM": 34.1},
      {"smiles": "COc1ccc(OCc2cc(C(=O)NCCN3CCCC(O)C3)no2)c(Cl)c1", "note": "(stereo not drawn)", "hERG current change (%, negative = inhibition) at 1uM": -2.94},
      {"smiles": "CC1=C/C(=N\\N=C2\\NC(=O)C(CC(=O)Nc3ccccc3)S2)CC(C)(C)C1", "note": "(stereo not drawn)", "hERG current change (%, negative = inhibition) at 1uM": 8.69},
      {"smiles": "CCOC(=O)c1cc2sccc2n1Cc1ccccc1", "hERG current change (%, negative = inhibition) at 1uM": 5.41},
      {"smiles": "COC(=O)C(Cc1ccccc1)P(=O)(c1ccccc1)c1ccccc1", "note": "(stereo not drawn)", "hERG current change (%, negative = inhibition) at 1uM": 10.4},
      {"smiles": "COC(=O)c1cc(OC)c(OC)cc1NC(=O)Nc1ccccc1OC", "hERG current change (%, negative = inhibition) at 1uM": 1.25}
    ]}
  ]
}
